From patent US20250257143A1 (FORTE SUBSIDIARY, published 2025)

T1: huCD122-HIS (ARCO Bio | Cat No. CD2-H5221) (human, UniProt P14784 27-239)
T1 construct: Bought analyte of the BLI assay; also called human CD122; not shown: His tag
T1 sequence (looked up): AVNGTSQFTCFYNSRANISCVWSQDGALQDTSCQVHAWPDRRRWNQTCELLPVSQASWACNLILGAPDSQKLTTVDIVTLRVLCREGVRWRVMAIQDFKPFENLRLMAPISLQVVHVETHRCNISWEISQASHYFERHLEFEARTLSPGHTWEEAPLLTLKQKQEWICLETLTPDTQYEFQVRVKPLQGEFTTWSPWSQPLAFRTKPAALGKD

B1: G3 (antibody, human IgG1, kappa)
heavy: QVQLVQSGAEVKKPGASVKVSCKASGYTFTSHWISWVRQAPGQGLEWMGDIYPGSGNTNYNEKLQGRVTMTVDTSTSTAYMELRSLRSDDTAVYYCARERGGFDYWGQGTLVTVSS[here human IgG1 constant region without letters]
light: DIQMTQSPSSLSASVGDRVTITCQASQDISNFLNWYQQKPGKTLKLLIYYTSGLHTGVPSRFSGSGSGTDFTFTISSLQPEDIATYYCQQDNNHPYTFGQGTKLEIKRTVAAPSVFIFPPSDEQLKSGTASVVCLLNNFYPREAKVQWKVDNALQSGNSQESVTEQDSKDSTYSLSSTLTLSKADYEKHKVYACEVTHQGLSSPVTKSFNRGEC
notes: Humanized, human IgG1 (G1M17), kappa
B2: G14 (antibody, human IgG4 S228P, kappa)
heavy: QVQLVQSGAEVKKPGASVKVSCKASGYTFTSHWISWVRQAPGQGLEWMGDIYPGSGNTNYNEKLQGRVTMTVDTSTSTAYMELRSLRSDDTAVYYCARERGGFDYWGQGTLVTVSSASTKGPSVFPLAPCSRSTSESTAALGCLVKDYFPEPVTVSWNSGALTSGVHTFPAVLQSSGLYSLSSVVTVPSSSLGTKTYTCNVDHKPSNTKVDKRV[here human IgG4 Fc with S228P (EU numbers) without letters]
light: DIQMTQSPSSLSASVGDRVTITCRASQDISNFLNWYQQKPGKAPKLLIYYTSGLHSGVPSRFSGSGSGTDFTLTISSLQPEDFATYYCQQDNNHPYTFGQGTKLEIKRTVAAPSVFIFPPSDEQLKSGTASVVCLLNNFYPREAKVQWKVDNALQSGNSQESVTEQDSKDSTYSLSSTLTLSKADYEKHKVYACEVTHQGLSSPVTKSFNRGEC
notes: Humanized, human IgG4 (S228P), kappa
B3: G16 (antibody, human IgG4 S228P, kappa)
heavy: QVQLVQSGAEVKKPGASVKVSCKASGYTFTSHWITWVRQAPGQGLEWMGDIYPGSGNTNYNEKFQGRVTLTVDTSISTAYMELSRLRSDDTVVYYCARERGGFDYWGQGTLVTVSSASTKGPSVFPLAPCSRSTSESTAALGCLVKDYFPEPVTVSWNSGALTSGVHTFPAVLQSSGLYSLSSVVTVPSSSLGTKTYTCNVDHKPSNTKVDKRV[here human IgG4 Fc with S228P (EU numbers) without letters]
light: DIQMTQSPSSLSASVGDRVTITCQASQDISNFLNWYQQKPGKTLKLLIYYTSGLHTGVPSRFSGSGSGTDFTFTISSLQPEDIATYYCQQDNNHPYTFGQGTKLEIKRTVAAPSVFIFPPSDEQLKSGTASVVCLLNNFYPREAKVQWKVDNALQSGNSQESVTEQDSKDSTYSLSSTLTLSKADYEKHKVYACEVTHQGLSSPVTKSFNRGEC
notes: as for B2
B4: G17 (antibody, human IgG4 S228P, kappa)
heavy: QVQLVQSGAEVKKPGASVKVSCKASGYTFTSHWITWVRQAPGQGLEWMGDIYPGSGNTNYNEKFQGRVTLTVDTSISTAYMELSRLRSDDTVVYYCARERGGFDYWGQGTLVTVSSASTKGPSVFPLAPCSRSTSESTAALGCLVKDYFPEPVTVSWNSGALTSGVHTFPAVLQSSGLYSLSSVVTVPSSSLGTKTYTCNVDHKPSNTKVDKRV[here human IgG4 Fc with S228P (EU numbers) without letters]
light: DIQMTQSPSSLSASVGDRVTITCRASQDISNFLNWYQQKPGKAPKLLIYYTSGLHSGVPSRFSGSGSGTDFTLTISSLQPEDFATYYCQQDNNHPYTFGQGTKLEIKRTVAAPSVFIFPPSDEQLKSGTASVVCLLNNFYPREAKVQWKVDNALQSGNSQESVTEQDSKDSTYSLSSTLTLSKADYEKHKVYACEVTHQGLSSPVTKSFNRGEC
notes: as for B2
B5: G19 (antibody, human IgG4 S228P, kappa)
heavy: QVQLVQSGAEVKKPGASVKVSCKASGYTFTSHWITWVRQAPGQRLEWMGDIYPGSGNTNYNEKFQGRVTITVDTSASTAYMELSSLRSEDTAVYYCARERGGFDYWGQGTLVTVSSASTKGPSVFPLAPCSRSTSESTAALGCLVKDYFPEPVTVSWNSGALTSGVHTFPAVLQSSGLYSLSSVVTVPSSSLGTKTYTCNVDHKPSNTKVDKRV[here human IgG4 Fc with S228P (EU numbers) without letters]
light: DIQMTQSPSSLSASVGDRVTITCQASQDISNFLNWYQQKPGKTLKLLIYYTSGLHTGVPSRFSGSGSGTDFTFTISSLQPEDIATYYCQQDNNHPYTFGQGTKLEIKRTVAAPSVFIFPPSDEQLKSGTASVVCLLNNFYPREAKVQWKVDNALQSGNSQESVTEQDSKDSTYSLSSTLTLSKADYEKHKVYACEVTHQGLSSPVTKSFNRGEC
notes: as for B2
B6: G20 (antibody, human IgG4 S228P, kappa)
heavy: QVQLVQSGAEVKKPGASVKVSCKASGYTFTSHWITWVRQAPGQRLEWMGDIYPGSGNTNYNEKFQGRVTITVDTSASTAYMELSSLRSEDTAVYYCARERGGFDYWGQGTLVTVSSASTKGPSVFPLAPCSRSTSESTAALGCLVKDYFPEPVTVSWNSGALTSGVHTFPAVLQSSGLYSLSSVVTVPSSSLGTKTYTCNVDHKPSNTKVDKRV[here human IgG4 Fc with S228P (EU numbers) without letters]
light: DIQMTQSPSSLSASVGDRVTITCRASQDISNFLNWYQQKPGKAPKLLIYYTSGLHSGVPSRFSGSGSGTDFTLTISSLQPEDFATYYCQQDNNHPYTFGQGTKLEIKRTVAAPSVFIFPPSDEQLKSGTASVVCLLNNFYPREAKVQWKVDNALQSGNSQESVTEQDSKDSTYSLSSTLTLSKADYEKHKVYACEVTHQGLSSPVTKSFNRGEC
notes: as for B2
B7: G4 (antibody, human IgG1, kappa)
heavy: QVQLVQSGAEVKKPGASVKVSCKASGYTFTSHWISWVRQAPGQGLEWMGDIYPGSGNTNYNEKLQGRVTMTVDTSTSTAYMELRSLRSDDTAVYYCARERGGFDYWGQGTLVTVSS[here human IgG1 constant region without letters]
light: DIQMTQSPSSLSASVGDRVTITCRASQDISNFLNWYQQKPGKAPKLLIYYTSGLHSGVPSRFSGSGSGTDFTLTISSLQPEDFATYYCQQDNNHPYTFGQGTKLEIKRTVAAPSVFIFPPSDEQLKSGTASVVCLLNNFYPREAKVQWKVDNALQSGNSQESVTEQDSKDSTYSLSSTLTLSKADYEKHKVYACEVTHQGLSSPVTKSFNRGEC
notes: as for B1
B8: G6 (antibody, human IgG1, kappa)
heavy: QVQLVQSGAEVKKPGASVKVSCKASGYTFTSHWITWVRQAPGQGLEWMGDIYPGSGNTNYNEKFQGRVTLTVDTSISTAYMELSRLRSDDTVVYYCARERGGFDYWGQGTLVTVSS[here human IgG1 constant region without letters]
light: DIQMTQSPSSLSASVGDRVTITCQASQDISNFLNWYQQKPGKTLKLLIYYTSGLHTGVPSRFSGSGSGTDFTFTISSLQPEDIATYYCQQDNNHPYTFGQGTKLEIKRTVAAPSVFIFPPSDEQLKSGTASVVCLLNNFYPREAKVQWKVDNALQSGNSQESVTEQDSKDSTYSLSSTLTLSKADYEKHKVYACEVTHQGLSSPVTKSFNRGEC
notes: as for B1
B9: G7 (antibody, human IgG1, kappa)
heavy: QVQLVQSGAEVKKPGASVKVSCKASGYTFTSHWITWVRQAPGQGLEWMGDIYPGSGNTNYNEKFQGRVTLTVDTSISTAYMELSRLRSDDTVVYYCARERGGFDYWGQGTLVTVSS[here human IgG1 constant region without letters]
light: DIQMTQSPSSLSASVGDRVTITCRASQDISNFLNWYQQKPGKAPKLLIYYTSGLHSGVPSRFSGSGSGTDFTLTISSLQPEDFATYYCQQDNNHPYTFGQGTKLEIKRTVAAPSVFIFPPSDEQLKSGTASVVCLLNNFYPREAKVQWKVDNALQSGNSQESVTEQDSKDSTYSLSSTLTLSKADYEKHKVYACEVTHQGLSSPVTKSFNRGEC
notes: as for B1
B10: G9 (antibody, human IgG1, kappa)
heavy: QVQLVQSGAEVKKPGASVKVSCKASGYTFTSHWITWVRQAPGQRLEWMGDIYPGSGNTNYNEKFQGRVTITVDTSASTAYMELSSLRSEDTAVYYCARERGGFDYWGQGTLVTVSS[here human IgG1 constant region without letters]
light: DIQMTQSPSSLSASVGDRVTITCQASQDISNFLNWYQQKPGKTLKLLIYYTSGLHTGVPSRFSGSGSGTDFTFTISSLQPEDIATYYCQQDNNHPYTFGQGTKLEIKRTVAAPSVFIFPPSDEQLKSGTASVVCLLNNFYPREAKVQWKVDNALQSGNSQESVTEQDSKDSTYSLSSTLTLSKADYEKHKVYACEVTHQGLSSPVTKSFNRGEC
notes: Humanized, human IgG1 (G1M17), kappa; Only the second batch was measured

What was measured:
[1] = target: T1, huCD122-HIS (ARCO Bio | Cat No. …); experiment: BLI Octet, antibody captured on AHC sensor, huCD122-His analyte, 1:1 fit
Procedure: (§1) Based on Bio-Layer Interferometry (BLI), the Octet® BLI system is a fluidics-free instrument platform that enables real-time, label-free analysis for the determination of kinetics, affinity and antibody/protein quantitation. Binding experiments were performed on Octet HTX at 25° C. The analyte used was huCD122-HIS (ARCO Bio | Cat No. CD2-H5221) at a molecular weight of 25.4 kDa. The antibodies were loaded onto Anti-human Fc capture (AHC) sensors. The loaded sensors were dipped into serial dilutions of huCD122-His (Starting at 20 nM, 1:3 dilution, 4 points). Reference sample well (buffer) was used for data analysis. Kinetic constants were calculated using a monovalent (1:1) binding model. The assay buffer used was PBS with 0.1% BSA, […], pH 7.2. The regeneration buffer used was 10 mM Glycine buffer (pH 1.7). The four concentrations of huCD122-His used to determine anti-CD122 antibody binding and dissociation properties were 0.0 nM, 2.2 nM, 6.7 nM, and 20 nM. Sensorgram plots to display antibody binding characteristics were generated. The mouse parental chimera configurations in both IgG1 and IgG4 backbones (M5 IgG1 parental and M5 IgG4 parental) were tested as well as each combination of the humanized 3 HC and 3 LC variants in either an IgG1 or an IgG4 backbone.

[2] = target: T1, huCD122-HIS (ARCO Bio | Cat No. …); experiment: BLI Octet, antibody captured on AHC sensor, huCD122-His analyte, 1:1 fit; second batch
Procedure: as §1

Binder	Kd [1] [nM]	Response [1]	koff [1] [s⁻¹]	kon [1] [M⁻¹ s⁻¹]	Kd [2] [nM]	Response [2]	koff [2] [s⁻¹]	kon [2] [M⁻¹ s⁻¹]
B1	0.754	0.394	0.000395	524000	–	–	–	–
B2	1.75	0.355	0.000697	398000	2.57	0.301	0.00107	415000
B3	1.03	0.342	0.000478	466000	1.18	0.251	0.00064	541000
B4	2.18	0.305	0.000922	424000	–	–	–	–
B5	0.698	0.337	0.000322	462000	0.915	0.335	0.000489	534000
B6	1.12	0.318	0.000466	415000	–	–	–	–
B7	1.67	0.363	0.000801	479000	–	–	–	–
B8	0.814	0.373	0.000415	509000	–	–	–	–
B9	1.78	0.364	0.000928	521000	–	–	–	–
B10	–	–	–	–	0.869	0.36	0.000415	478000
